# Source: the supplement of paper PMC8728848
# The other results are listed elsewhere or left out.
# B1: MGL (Homo sapiens), Q8IUN9 (protein)
# chain: MTRTYENFQYLENKVKVQGFKNGPLPLQSLLQRLCSGPCHLLLSLGLGLLLLVIICVVGFQNSKFQRDLVTLRTDFSNFTSNTVAEIQALTSQGSSLEETIASLKAEVEGFKQERQAGVSELQEHTTQKAHLGHCPHCPSVCVPVHSEMLLRVQQLVQDLKKLTCQVATLNNNASTEGTCCPVNWVEHQDSCYWFSHSGMSWAEAEKYCQLKNAHLVVINSREEQNFVQKYLGSAYTWMGLSDPEGAWKWVDGTDYATGFQNWKPGQPDDWQGHGLGGGEDCAHFHPDGRWNDDVCQRPYHWVCEAGLGQTSQESH
# Key:
# Test in all cases: glycan array binding signal (z-score within array); higher = stronger binding
# Settings in all cases: glycan notation: IUPAC condensed, linker removed
# [1] = biological target: Fuc(a1-2)Gal(b1-4)[Fuc(a1-3)]GlcNAc
# Procedure, shortened: (§1)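 The binding signal is a Z-score computed within each array. Data were drawn from 3228 arrays in the Consortium for Functional Glycomics database, restricted to those with a known protein sequence. Scores were averaged over arrays of the same protein sequence at different concentrations or buffers, and over linkers, and negative values can be taken as non-binding.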
# [2] = biological target: Fuc(a1-2)Gal(b1-4)[Fuc(a1-3)]GlcNAc(b1-2)Man(a1-3)[Fuc(a1-2)Gal(b1-4)[Fuc(a1-3)]GlcNAc(b1-2)Man(a1-6)]Man(b1-4)GlcNAc(b1-4)[Fuc(a1-6)]GlcNAc
# Procedure, shortened: as §1
# [3] = biological target: Fuc(a1-2)Gal(b1-4)[Fuc(a1-3)]GlcNAc(b1-2)[Fuc(a1-2)Gal(b1-4)[Fuc(a1-3)]GlcNAc(b1-4)]Man(a1-3)[Fuc(a1-2)Gal(b1-4)[Fuc(a1-3)]GlcNAc(b1-2)Man(a1-6)]Man(b1-4)GlcNAc(b1-4)GlcNAc
# Procedure, shortened: as §1
# [4] = biological target: Fuc(a1-2)Gal(b1-4)[Fuc(a1-3)]GlcNAc(b1-3)Gal(b1-4)[Fuc(a1-3)]GlcNAc
# Procedure, shortened: as §1
# [5] = biological target: Fuc(a1-2)Gal(b1-4)[Fuc(a1-3)]GlcNAc(b1-3)Gal(b1-4)[Fuc(a1-3)]GlcNAc(b1-3)Gal(b1-4)[Fuc(a1-3)]GlcNAc
# Procedure, shortened: as §1
# [6] = biological target: Fuc(a1-2)Gal(b1-4)[Fuc(a1-3)]GlcNAc(b1-3)GalNAc
# Procedure, shortened: as §1
# [7] = biological target: Fuc(a1-2)Gal(b1-4)[Fuc(a1-3)]GlcNAc(b1-3)[Neu5Ac(a2-6)Gal(b1-4)GlcNAc(b1-6)]Gal(b1-4)Glc
# Procedure, shortened: as §1
# [8] = biological target: Fuc(a1-2)Gal3S(b1-4)GlcNAc
# Procedure, shortened: as §1
# [9] = biological target: Fuc(a1-2)Gal6S(b1-3)GlcNAc
# Procedure, shortened: as §1
# [10] = biological target: Fuc(a1-2)Gal6S(b1-3)GlcNAc6S
# Procedure, shortened: as §1
# Fuc(a1-2)Gal6S(b1-4)Glc = biological target: Fuc(a1-2)Gal6S(b1-4)Glc
# Procedure, shortened: as §1
# [11] = biological target: Fuc(a1-2)Gal6S(b1-4)Glc6S
# Procedure, shortened: as §1
# Fuc(a1-2)[Gal(a1-3)]Gal = biological target: Fuc(a1-2)[Gal(a1-3)]Gal
# Procedure, shortened: as §1
# [12] = biological target: Fuc(a1-2)[Gal(a1-3)]Gal(b1-3)GalNAc
# Procedure, shortened: as §1
# [13] = biological target: Fuc(a1-2)[Gal(a1-3)]Gal(b1-3)GalNAc(b1-3)Gal(a1-4)Gal(b1-4)Glc
# Procedure, shortened: as §1
# [14] = biological target: Fuc(a1-2)[Gal(a1-3)]Gal(b1-3)GlcNAc
# Procedure, shortened: as §1
# [15] = biological target: Fuc(a1-2)[Gal(a1-3)]Gal(b1-3)GlcNAc(b1-2)Man(a1-3)[Fuc(a1-2)[Gal(a1-3)]Gal(b1-3)GlcNAc(b1-2)Man(a1-6)]Man(b1-4)GlcNAc(b1-4)GlcNAc
# Procedure, shortened: as §1
# [16] = biological target: Fuc(a1-2)[Gal(a1-3)]Gal(b1-3)GlcNAc(b1-2)Man(a1-3)[Fuc(a1-2)[Gal(a1-3)]Gal(b1-3)GlcNAc(b1-2)Man(a1-6)]Man(b1-4)GlcNAc(b1-4)[Fuc(a1-6)]GlcNAc
# Procedure, shortened: as §1
# [17] = biological target: Fuc(a1-2)[Gal(a1-3)]Gal(b1-3)GlcNAc(b1-3)GalNAc
# Procedure, shortened: as §1
# [18] = biological target: Fuc(a1-2)[Gal(a1-3)]Gal(b1-3)GlcNAc(b1-6)GalNAc
# Procedure, shortened: as §1
# [19] = biological target: Fuc(a1-2)[Gal(a1-3)]Gal(b1-4)Glc
# Procedure, shortened: as §1
# [20] = biological target: Fuc(a1-2)[Gal(a1-3)]Gal(b1-4)GlcNAc
# Procedure, shortened: as §1
# [21] = biological target: Fuc(a1-2)[Gal(a1-3)]Gal(b1-4)GlcNAc(b1-2)Man
# Procedure, shortened: as §1
# [22] = biological target: Fuc(a1-2)[Gal(a1-3)]Gal(b1-4)GlcNAc(b1-2)Man(a1-3)[Fuc(a1-2)[Gal(a1-3)]Gal(b1-4)GlcNAc(b1-2)Man(a1-6)]Man(b1-4)GlcNAc(b1-4)GlcNAc
# Procedure, shortened: as §1
# [23] = biological target: Fuc(a1-2)[Gal(a1-3)]Gal(b1-4)GlcNAc(b1-2)Man(a1-3)[Fuc(a1-2)[Gal(a1-3)]Gal(b1-4)GlcNAc(b1-2)Man(a1-6)]Man(b1-4)GlcNAc(b1-4)[Fuc(a1-6)]GlcNAc
# Procedure, shortened: as §1
# [24] = biological target: Fuc(a1-2)[Gal(a1-3)]Gal(b1-4)GlcNAc(b1-3)GalNAc
# Procedure, shortened: as §1
# [25] = biological target: Fuc(a1-2)[Gal(a1-3)]Gal(b1-4)GlcNAc(b1-3)[Fuc(a1-2)[Gal(a1-3)]Gal(b1-4)GlcNAc(b1-6)]GalNAc
# Procedure, shortened: as §1
# [26] = biological target: Fuc(a1-2)[Gal(a1-3)]Gal(b1-4)GlcNAc(b1-6)GalNAc
# Procedure, shortened: as §1
# [27] = biological target: Fuc(a1-2)[Gal(a1-3)]Gal(b1-4)[Fuc(a1-3)]Glc
# Procedure, shortened: as §1
# [28] = biological target: Fuc(a1-2)[Gal(a1-3)]Gal(b1-4)[Fuc(a1-3)]GlcNAc
# Procedure, shortened: as §1
# [29] = biological target: Fuc(a1-2)[Gal(a1-3)]Gal(b1-4)[Fuc(a1-3)]GlcNAc(b1-3)GalNAc
# Procedure, shortened: as §1
# [30] = biological target: Fuc(a1-2)[Gal(a1-4)]Gal(b1-4)GlcNAc
# Procedure, shortened: as §1
# [31] = biological target: Fuc(a1-2)[GalNAc(a1-3)]Gal
# Procedure, shortened: as §1
# [32] = biological target: Fuc(a1-2)[GalNAc(a1-3)]Gal(b1-3)GalNAc(a1-3)[Fuc(a1-2)]Gal(b1-4)GlcNAc
# Procedure, shortened: as §1
# [33] = biological target: Fuc(a1-2)[GalNAc(a1-3)]Gal(b1-3)GalNAc(b1-3)Gal(a1-4)Gal(b1-4)Glc
# Procedure, shortened: as §1
# [34] = biological target: Fuc(a1-2)[GalNAc(a1-3)]Gal(b1-3)GlcNAc
# Procedure, shortened: as §1
# [35] = biological target: Fuc(a1-2)[GalNAc(a1-3)]Gal(b1-3)GlcNAc(b1-2)Man(a1-3)[Fuc(a1-2)[GalNAc(a1-3)]Gal(b1-3)GlcNAc(b1-2)Man(a1-6)]Man(b1-4)GlcNAc(b1-4)GlcNAc
# Procedure, shortened: as §1
# [36] = biological target: Fuc(a1-2)[GalNAc(a1-3)]Gal(b1-3)GlcNAc(b1-2)Man(a1-3)[Fuc(a1-2)[GalNAc(a1-3)]Gal(b1-3)GlcNAc(b1-2)Man(a1-6)]Man(b1-4)GlcNAc(b1-4)[Fuc(a1-6)]GlcNAc
# Procedure, shortened: as §1
binder,measurement,setting,value
B1,glycan array binding signal (z-score),[1],-0.251
same,glycan array binding signal (z-score),[2],-0.229
same,glycan array binding signal (z-score),[3],-0.22
same,glycan array binding signal (z-score),[4],-0.232
same,glycan array binding signal (z-score),[5],-0.24
same,glycan array binding signal (z-score),[6],-0.24
same,glycan array binding signal (z-score),[7],-0.247
same,glycan array binding signal (z-score),[8],-0.244
same,glycan array binding signal (z-score),[9],-0.247
same,glycan array binding signal (z-score),[10],-0.172
same,glycan array binding signal (z-score),Fuc(a1-2)Gal6S(b1-4)Glc,-0.242
same,glycan array binding signal (z-score),[11],-0.254
same,glycan array binding signal (z-score),Fuc(a1-2)[Gal(a1-3)]Gal,-0.241
same,glycan array binding signal (z-score),[12],-0.24
same,glycan array binding signal (z-score),[13],-0.246
same,glycan array binding signal (z-score),[14],-0.238
same,glycan array binding signal (z-score),[15],-0.249
same,glycan array binding signal (z-score),[16],-0.248
same,glycan array binding signal (z-score),[17],-0.25
same,glycan array binding signal (z-score),[18],2.77
same,glycan array binding signal (z-score),[19],-0.237
same,glycan array binding signal (z-score),[20],-0.24
same,glycan array binding signal (z-score),[21],-0.248
same,glycan array binding signal (z-score),[22],-0.237
same,glycan array binding signal (z-score),[23],-0.239
same,glycan array binding signal (z-score),[24],-0.235
same,glycan array binding signal (z-score),[25],-0.231
same,glycan array binding signal (z-score),[26],-0.247
same,glycan array binding signal (z-score),[27],-0.248
same,glycan array binding signal (z-score),[28],-0.318
same,glycan array binding signal (z-score),[29],-0.239
same,glycan array binding signal (z-score),[30],-0.238
same,glycan array binding signal (z-score),[31],0.432
same,glycan array binding signal (z-score),[32],0.059
same,glycan array binding signal (z-score),[33],0.021
same,glycan array binding signal (z-score),[34],0.538
same,glycan array binding signal (z-score),[35],0.273
same,glycan array binding signal (z-score),[36],-0.194
